# Assay results as given in article PMC9911399, “Two distinct binding modes provide the RNA-binding protein RbFox with extraordinary sequence specificity”.
# Residue numbers refer to the chain shown, from its start. This is one part of the list.
# T1: RBFOX1 RRM RbFoxmut (Fox-RRM*) (Homo sapiens, UniProt Q9NWB1 109-208, R118D;E147R;N151S;E152T)
# T1 sequence: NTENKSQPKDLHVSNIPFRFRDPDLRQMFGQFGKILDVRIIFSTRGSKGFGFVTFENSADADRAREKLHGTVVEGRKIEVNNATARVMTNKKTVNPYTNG
# B1: UUGUCGC (DNA:RNA)
# RNA: GGGAGACCGGAAUUCAGAUUGUCCUUGUCGCUUAAAUCCCGUCGUAGCCACCA
# DNA 1: CAATCTGAATTCCGGTCTCCC
# DNA 2: TGGTGGCTACGACGGGATT
# B2: AGAAUAG (DNA:RNA)
# RNA: GGGAGACCGGAAUUCAGAUUGUCCAGAAUAGUUAAAUCCCGUCGUAGCCACCA
# DNA 1: CAATCTGAATTCCGGTCTCCC
# DNA 2: TGGTGGCTACGACGGGATT
# B3: UCGAAUC (DNA:RNA)
# RNA: B1 RNA with U26C, U28A, C29A, G30U
# DNA 1: CAATCTGAATTCCGGTCTCCC
# DNA 2: TGGTGGCTACGACGGGATT
# B4: CACGUCG (DNA:RNA)
# RNA: B2 RNA with A25C, G26A, A27C, A28G, A30C
# DNA 1: CAATCTGAATTCCGGTCTCCC
# DNA 2: TGGTGGCTACGACGGGATT
# B5: UGUGGGG (DNA:RNA)
# RNA: B2 RNA with A25U, A27U, A28G, U29G, A30G
# DNA 1: CAATCTGAATTCCGGTCTCCC
# DNA 2: TGGTGGCTACGACGGGATT
# B6: AAUCACC (DNA:RNA)
# RNA: B2 RNA with G26A, A27U, A28C, U29A, A30C, G31C
# DNA 1: CAATCTGAATTCCGGTCTCCC
# DNA 2: TGGTGGCTACGACGGGATT
# B7: AAUCCGA (DNA:RNA)
# RNA: B1 RNA with U25A, U26A, G27U, U28C, C31A
# DNA 1: CAATCTGAATTCCGGTCTCCC
# DNA 2: TGGTGGCTACGACGGGATT
# B8: UCUCAUU (DNA:RNA)
# RNA: B1 RNA with U26C, G27U, U28C, C29A, G30U, C31U
# DNA 1: CAATCTGAATTCCGGTCTCCC
# DNA 2: TGGTGGCTACGACGGGATT
# B9: GUUACAC (DNA:RNA)
# RNA: B1 RNA with U25G, G27U, U28A, G30A
# DNA 1: CAATCTGAATTCCGGTCTCCC
# DNA 2: TGGTGGCTACGACGGGATT
# Molecular target: T1, RBFOX1 RRM RbFoxmut (Fox-RRM*)
# Assay: EMSA; HiTS-Eq, 1 nM pool, 10 min; buffer printed only for the single-RNA assays: 10 mM Tris pH 7.5, 150 mM NaCl, 3.4 mM EDTA, 0.001% NP-40, 30 C
# Settings: tags: His6 N-terminal (pET28a); label: 5' 32P
# Outline: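 Purified RbFox RRM (wild type or mutant) was equilibrated for 10 min in 50 µL with 1 nM of a 5′-radiolabelled pool of RNA with 7 randomized nucleotides, its flanks annealed to DNA oligonucleotides, across increasing protein concentrations. Free RNA was separated by 8% native PAGE, excised, reverse-transcribed, PCR-barcoded and sequenced on an Illumina HiSeq 2500. Relative association constants came from read-count changes of each variant against the control reaction, normalised to the cognate motif.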
row,Binder,binding signal
1,B1,0.127 KA relative to UGCAUGU
2,B2,0.144 KA relative to UGCAUGU
3,B3,0.36 KA relative to UGCAUGU
4,B4,0.109 KA relative to UGCAUGU
5,B5,0.0927 KA relative to UGCAUGU
6,B6,0.0566 KA relative to UGCAUGU
7,B7,0.0381 KA relative to UGCAUGU
8,B8,0.101 KA relative to UGCAUGU
9,B9,0.0877 KA relative to UGCAUGU
